Our source for the self-cleavage values is the RNAGym collection of RNA variant scans (doi:10.7554/elife.90254).

The source gives no read counts; variants with many changes may rest on few reads.

The chains are these.
B1: OR4K15 (parent)
chain: GUUAACGGUCAUAGGCCAUGGAAACUAGGAGCACCAUUUCGCUGCCAGUGAAGAAAUGAACAAAGAAAAUCUGGGCCAGGCAGGCAUCAAAAGAAAUAGUCUUGCGCUCAACCAGAAAGUCUGUAAUCAUUUUAAGGGUA

In this series the parent is B1. Briefly: self-cleavage, relative activity (ratio to wild type); higher = more cleavage; in vitro, sequencing; the parent is a self-cleaving ribozyme.
GUUAACGGUCGUAGGCCAUGGAAGCUAGGAGCACCAUUUCGCUGCCAGUGAAGAAAUGUACAAAGAAAAUCUGGGCCAGGCAGGCAUCAAAAGAAAUAGUCUUGCGCUCAACCAGAAAGUCUGUAAUCAUUUUAAGGGUA [A11G A24G A59U]: the self-cleavage was 0.86.
GUUAACGGUCGUAGGCCAUGGAAACUAGGGGCACCAUUACGCUGCCAGUGAAGAAAUGAACAAAGAAAAUCUGGGCCAGGCAGGCAUCAAAAGAAAUAGUCUUGCGCUCAACCAGAAAGUCUGUAAUCAUUUUAAGGGUA [A11G A30G U39A]: the self-cleavage was found to be 0.93.
As for GUUAACGGUCGUAGGCCAUGGAAACUAGGGGCACCAUUUCGCUGCCAGUGAAGAAAUGAACAAAGAAAAUCUGGGCCAGACAGGCAUCAAAAGAAAUAGUCUUGCGCUUGACCAGAAAGUCUGUAAUCAUUUUAAGGGUA [A11G A30G G80A C109U A110G], the figure is 0.01; as for GUUAACGGUCGUAGGCCAUGGAAACUUGGAGCACCAUUUCGCAGCCAGUGAAGAAAUGAACAAGGAAAAUCUGGGCCAGGCAGGCAUCAAAAGAGAUAGUCUCGCGCUCAACCAGAAAGUCUGUAAUCAUUUUAAGGGUA [A11G A27U U43A A64G A95G U103C], 1.32; as for GUUAACGGUCGUAGGCCAUGGAAACUAGGAGCGCCAUUUCGCUGCCAGUGAAGAAAUGAACAAAGAAAAUCUGGGCCAGGCAGGCAUCAAAAGAAAUAGUCUUGCGCUCAACCAGAAAGCCUGUAAUCAUUUUAAGGGUA [A11G A33G U120C], 0.36.
On to GUUAACGGUCGUAGGCCAUGGAAUCUAGGAGCACCAUUUCGCUGCCAGUGAAGAAAUGAACAAAGAAAAUCUGGGCCAGGCAGGCAUCAAAAGAAAUAGUCUUGCGCCCAACCAGAAAGUCUGUAAUCAUUUUAAGGGUA [A11G A24U U108C], for which the self-cleavage turned out to be 0.02.
For GUUAACGGUCGUAGGCCAUGGAGACUAGGAGCACCAUUACGCUGCCAGUGAAGAAAUGAACAAAGAAAAUCUGGGCCAGGCAGGCAUCAAAAGAAAUAGUCCUGCGCCCAACCAGAAAGUCUGUAAUCAUUUUAAGGGUA [A11G A23G U39A U102C U108C], the self-cleavage worked out at 0.02.
With GUUAACGGUCGUAGGCCAUGGAAACUAGGGGCACCACUUCGCUGCCAGUGUAGAAAUGAACAAAGAAAAUCUGGGCCAGGCAGGCAUCAAAAGAAAUAGUCUUGCGCUCAACCAGAAAGUCUGUAAUCACUUUAAGGGUA [A11G A30G U37C A51U U130C], the self-cleavage worked out at 0.71.
Consider GUUAACGGUCGUAGGCCAUGGAAGCUGGGAGCACCAUUUCGCUGCCAGUGAAGAAAUGAACAAAGAAAAUCUGGGCCAGGCAGGCAUCAAAAGAAAUAGUCUUGCGCUCAACCAGAGAGUCUGUAAUCAUUUUAAGGGUA [A11G A24G A27G A117G], for which the self-cleavage came out at 1.4.
For the variant GUUAACGGUCGUAGGCCAUGGAAACUAGGAGCGCCAUUUCGCUGCCAGUGAAGAAGUGAACAAAGAAAAUCUGGGCCAGGCAGGCAUCAAAAGAAAUAGUCUUGCGCUCAACCAGAAAGUCUGUAAUCAUUUUAAGGGUA [A11G A33G A56G], the self-cleavage was 1.09.
In the case of GUUAACGGUCGUAGGCCAUGGAGACUAGGAGCACCACUUCGCCGCCAGUGAAGAAAUGAACAAAGAAAAUCUGGGCCAGGCAGGCAUCAAAAGAAAUAGUCUUGCGCUCAACCAGAAAGUCUGUAAUCAUUUUAAGGGUA [A11G A23G U37C U43C], the self-cleavage was determined as 1.06.
GUUAACGGUCGUAGGCCAUGGAGACUAGGAGCACAAUUUCGCUGCCAGUGAGGAAAUGAACAGGGAAAAUCUGGGCCAGGCAGGCAUCAAAAGAAAUAGUCUUGCGCUCAACCAGAAAGUCUGUAAUCAUUUUAAGGGUA [A11G A23G C35A A52G A63G A64G]: the self-cleavage stood at 0.66.
Turning to GUUAACGGUCGUAGGCCAUGGAAACUAGGAGCACCGUUCCGCUGCCAGUGAAGAAAUGAACAAAGAAAAUCUGGGCCAGGCAGGCAUCGAAAGAAAUAGUCUUGCGCUCAACCAGAAAGUCUGUAAUCAUUUUAAGGGUA [A11G A36G U39C A89G], the self-cleavage came to 0.91.
The result for GUUAACGGUCGUAGGCCAUGGAAACUAGGGGCACCAUUUCGCUGCCAGUGAAGAAAUGAACAAAGAAAAUCUGAGCCAGGCAGGCAUCAAAAGAAAUAGUCUUGCGCUCAGCCAGAAAGUCUGUAAUCAUUUUAAGGGUA [A11G A30G G74A A111G] reads 0.03; that for GUUAACGGUCGUAGGCCAUGGAAACUAGGGGCACCAUUUCGCUGCCAGUGAAGAAAUGAGCAAAGAAGAUCUGGGCCAGGCAGGCAUCAAAAGAAAUAGUCUUGCGCUCAACCAGAAAGUCAGUAAUCAUUUUAAGGGUA [A11G A30G A60G A68G U122A], 0.51.
Consider GUUAACGGUCGUAGGCCAUGGAAACUAGGAGCACCGUUUCGCUGCCAGUGAAGAAAUGAGCAAAGAAAAUCUGGGCCAGGCAGGCAUCAAAAGAAAUAGUCUCGCGCUCAACCAGAAAGUCUGUAAUCAUUUUAAGGGUG [A11G A36G A60G U103C A140G], for which the self-cleavage came out at 1.03.
Regarding GUUAACGGUCGUAGGCCAUGGAAACUAGGAGCGCCAUUUCGCUGCCAGUGAAGAAAUGAACAAAGGAAAUCUGGGCCAGGCGGGCAUCAAAAGAAAUAGUCUUGCGCUCAACCAGAAAGUCUGUAAUCAUUUUAAGGGUA [A11G A33G A66G A82G], the self-cleavage came to 0.38.
Consider GUUAACGGUCGUAGGCCAUGGAAACUAGGAGCACCUUUUCGCUGCCAGUGAAGAAAUGAACAAAGAAAGUCUGGGCCAGGCAGGCAUCAAAAGAAAUAGUCUUGCGCUCAACCAGAAAGUCUGUAAUCAUUUUAAGGGUA [A11G A36U A69G], for which the self-cleavage was determined as 0.51.
Regarding GUUAACGGUCGUAGGCCAUGGAAACUGGGAGCACCAUUUCGCUGCCAGUGAAGAAAUGAACAAAGAAAAUCUGGGCCAGGCAGGCAUCAAAAGAAAUAGUCUUGCGCUCAACCAGAAAGCCUGUAAUCAUUUUAAGGGUA [A11G A27G U120C], the self-cleavage is 0.
Turning to GUUAACGGUCGUAGGCCAUGGAAACUAGGAGCACCUUUUCGCUACCAGUGAAGAAAUGAACAAAGAAGAUCUGGGCCAGGCAGGCAUCAAAAGAAAUAGUCUUGCGCUCAACCAGAAAGUCUGUAAUCAUUUUAAGGGUA [A11G A36U G44A A68G], the self-cleavage is 0.54.
For GUUAACGGUCGUAGGCCAUGGAAACUGAGAGCACCAUUUCGCUGCCAGUGUAGAAAUGAACAAAGAAAAUCUGGGCCAGGCAGGCAUCAAAAGAAAUAGUCUUGCGCUCAACCAGAAAGUCUGUAAUCAUUUUAAGGGUA [A11G A27G G28A A51U], the self-cleavage was 0.96.
